{"source": "PubChem BioAssay AID1224863", "about": "(Southern Research Institute, 2016)", "key": {"[1]": {"assay": "compounds raising F508del-CFTR protein level – cell-based, HeLa F508del-CFTR, immunofluorescence, viability, primary screen (AID 1224863);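 for fold increase: total CFTR protein by anti-CFTR immunofluorescence in fixed cells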", "settings": "immunofluorescence total CFTR, 24 h, stronger effect = higher value; min viability: measured here: HeLa viability, alamarBlue, dose 50, library dosed in µM unless noted; viability: measured here: primary viability 25 uM, at 25 µM, library dosed in µM unless noted"}, "[2]": {"molecular_target": "Cystic fibrosis transmembrane conductance regulator (Homo sapiens) (UniProt P13569)", "sequence (P13569 whole entry, looked up)": "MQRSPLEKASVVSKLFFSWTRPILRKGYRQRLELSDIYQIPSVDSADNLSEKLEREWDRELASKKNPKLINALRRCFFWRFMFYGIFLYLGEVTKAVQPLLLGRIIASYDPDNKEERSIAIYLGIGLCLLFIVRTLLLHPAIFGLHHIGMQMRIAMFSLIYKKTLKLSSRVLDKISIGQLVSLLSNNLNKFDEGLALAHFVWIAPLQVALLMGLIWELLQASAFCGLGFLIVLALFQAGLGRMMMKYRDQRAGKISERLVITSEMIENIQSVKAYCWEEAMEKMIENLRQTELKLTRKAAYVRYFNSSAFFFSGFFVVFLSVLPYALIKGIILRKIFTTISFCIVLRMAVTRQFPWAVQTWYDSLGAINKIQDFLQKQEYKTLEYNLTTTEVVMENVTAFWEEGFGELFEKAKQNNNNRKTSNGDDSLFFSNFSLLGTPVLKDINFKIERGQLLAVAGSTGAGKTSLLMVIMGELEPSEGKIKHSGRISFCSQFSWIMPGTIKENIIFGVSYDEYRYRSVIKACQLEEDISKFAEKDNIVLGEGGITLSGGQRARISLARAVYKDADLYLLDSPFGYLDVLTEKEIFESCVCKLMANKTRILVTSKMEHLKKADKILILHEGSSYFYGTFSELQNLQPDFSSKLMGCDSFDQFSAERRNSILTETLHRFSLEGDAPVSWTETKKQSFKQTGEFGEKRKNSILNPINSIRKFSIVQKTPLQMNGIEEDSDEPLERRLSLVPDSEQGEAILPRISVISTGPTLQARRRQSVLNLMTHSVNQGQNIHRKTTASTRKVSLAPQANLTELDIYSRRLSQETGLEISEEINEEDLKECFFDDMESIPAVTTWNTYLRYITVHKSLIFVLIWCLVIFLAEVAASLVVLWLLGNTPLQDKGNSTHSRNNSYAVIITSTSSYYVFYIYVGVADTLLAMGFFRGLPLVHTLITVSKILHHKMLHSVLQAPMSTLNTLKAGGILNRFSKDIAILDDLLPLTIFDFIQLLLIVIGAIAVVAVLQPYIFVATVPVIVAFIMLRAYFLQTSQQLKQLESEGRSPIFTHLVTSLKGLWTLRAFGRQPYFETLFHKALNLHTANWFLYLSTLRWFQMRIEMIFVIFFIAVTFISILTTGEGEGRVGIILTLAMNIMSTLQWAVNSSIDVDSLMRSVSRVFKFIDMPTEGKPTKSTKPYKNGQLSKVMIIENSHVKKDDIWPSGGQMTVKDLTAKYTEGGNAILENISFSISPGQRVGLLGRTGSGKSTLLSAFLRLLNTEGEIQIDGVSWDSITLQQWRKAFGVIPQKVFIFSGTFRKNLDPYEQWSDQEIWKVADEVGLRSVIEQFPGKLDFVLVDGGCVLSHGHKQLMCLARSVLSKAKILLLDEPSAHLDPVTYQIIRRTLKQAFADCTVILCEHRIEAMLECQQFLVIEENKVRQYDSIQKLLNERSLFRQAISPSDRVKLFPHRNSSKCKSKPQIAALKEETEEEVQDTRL", "assay": "compounds raising F508del-CFTR protein level – cell-based, HeLa F508del-CFTR, immunofluorescence, viability, primary screen (AID 1224863)", "settings": "immunofluorescence total CFTR, 24 h, stronger effect = higher value; measured here: primary screen single dose 25 uM, at 25 µM, library dosed in µM unless noted"}}, "note": "This is one part of the list. The main result of the screen is listed elsewhere. These columns were measured beside it and carry no call.", "data": [{"smiles": "C=C[C@@H]1CN2CC[C@@H]1C[C@H]2[C@H](O)c1ccnc2ccc(OC)cc12", "values": [{"measurement": "viability", "setting": "[1]", "value": 97, "unit": "%"}, {"measurement": "fold increase", "setting": "[2]", "value": 1.12}]}, {"smiles": "O=C(OCc1coc(-c2cccs2)n1)c1sccc1-n1cccc1", "values": [{"measurement": "min viability", "setting": "[1]", "value": "64.1% [measured here: HeLa viability, alamarBlue, dose 0.078, library dosed in µg/mL]"}, {"measurement": "viability", "setting": "[1]", "value": "83% [measured here: primary viability 10 ug/mL, library dosed in µg/mL]"}, {"measurement": "fold increase", "setting": "[2]", "value": "1.6 [measured here: primary screen 10 ug/mL, library dosed in µg/mL]"}]}, {"smiles": "O=c1[nH]c(=O)n(C2CC2)c2nc(C3CC3)nc(SCc3nnsc3Cl)c12", "values": [{"measurement": "min viability", "setting": "[1]", "value": "80.9% [measured here: HeLa viability, alamarBlue, dose 1.25, library dosed in µg/mL]"}, {"measurement": "viability", "setting": "[1]", "value": "91% [measured here: primary viability 10 ug/mL, library dosed in µg/mL]"}, {"measurement": "fold increase", "setting": "[2]", "value": "1.53 [measured here: primary screen 10 ug/mL, library dosed in µg/mL]"}]}, {"smiles": "CC(C)Cn1nnnc1Sc1nnnn1-c1ccccc1", "values": [{"measurement": "min viability", "setting": "[1]", "value": "64.2% [measured here: HeLa viability, alamarBlue, dose 20, library dosed in µg/mL]"}, {"measurement": "viability", "setting": "[1]", "value": "91% [measured here: primary viability 10 ug/mL, library dosed in µg/mL]"}, {"measurement": "fold increase", "setting": "[2]", "value": "1.68 [measured here: primary screen 10 ug/mL, library dosed in µg/mL]"}]}, {"smiles": "c1ccc(-c2csc3nc(-c4ccccn4)nc(N4CCN(CC5CCCO5)CC4)c23)cc1", "note": "(configuration not stated)", "values": [{"measurement": "min viability", "setting": "[1]", "value": "68.2% [measured here: HeLa viability, alamarBlue, dose 1.25, library dosed in µg/mL]"}, {"measurement": "viability", "setting": "[1]", "value": "90% [measured here: primary viability 10 ug/mL, library dosed in µg/mL]"}, {"measurement": "fold increase", "setting": "[2]", "value": "2.89 [measured here: primary screen 10 ug/mL, library dosed in µg/mL]"}]}, {"smiles": "OCCCc1nc2ccccc2n1CC(O)COC(c1ccc(F)cc1)c1ccc(F)cc1", "note": "(configuration not stated)", "values": [{"measurement": "min viability", "setting": "[1]", "value": "64.4% [measured here: HeLa viability, alamarBlue, dose 1.25, library dosed in µg/mL]"}, {"measurement": "viability", "setting": "[1]", "value": "81% [measured here: primary viability 10 ug/mL, library dosed in µg/mL]"}, {"measurement": "fold increase", "setting": "[2]", "value": "1.69 [measured here: primary screen 10 ug/mL, library dosed in µg/mL]"}]}]}
